# Source: PubChem BioAssay AID1347120 (National Center for Advancing Translational Sciences (NCATS), 2019)
# Hit rate of the full screen: of about 390,000 compounds, about 930 (0.24%) were called active. This list was built around the results that the source calls inconclusive (neither active nor inactive); the mix of calls is not that of the screen. The call rests on the fitted dose curve; in most records, active means well fitted activation curve with a large enough effect; inconclusive means small, poorly fitted or top-dose-only effect; inactive means no such curve, though single readings can be large or run the other way. A potency beside an inconclusive call is a rough fit, not a confirmed value.
# Assay: qHTS for Suppressors of FUS Proteinopathy: Primary screen using FUS-linked yeast assay; further: nearly all actives have a fitted effect of over 55% in size;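 on growth rescue (activation): plate controls were DMSO vehicle for no effect and reference control for full effect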
# Conditions: S. cerevisiae FUS-expressing, OD600, 24 h; Potency: growth rescue; growth rescue (activation): at 76.6 µM (top of the series)
# Method in brief: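 Compound concentration series was pinned onto galactose-induced FUS-expressing yeast seeded at OD 0.005. Plates sat 24hr at 30C; absorbance at 600 nm gave growth. DMSO served as background control.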
# Potency means the concentration at half of the fitted maximal effect; tags describe the fitted curve by direction and shape.
SMILES,growth rescue (activation),Potency
COc1ccccc1NC(=O)N1CCN(c2nnc(C)c3c(C)n(-c4ccccc4)nc23)CC1,inactive: 0.0822%,–
COc1cc(C#N)ccc1OCC(=O)c1ccc2c(c1)OCCO2,–,"inconclusive: 22.4 µM [activator, partial curve, poor fit]"
Cc1ccc(C)c(N2CCN(S(=O)(=O)c3cc(C(=O)Nc4ccccc4C(F)(F)F)ccc3F)CC2)c1,inactive: 7.54%,–
CN(C)c1ccc(CNC(=O)Cn2c(-c3cccs3)cc3cc(Cl)ccc32)cc1,inactive: 0.595%,–
N#Cc1ccccc1Cn1c(=O)n(Cc2ccc(C(=O)NCc3ccco3)cc2)c(=O)c2ccccc21,–,"inconclusive: 8.91 µM [activator, single point]"
COCCN1C(=O)C(O)=C(C(=O)c2cccs2)C1c1ccccc1 (stereo not drawn),–,"inconclusive: 11.2 µM [activator, single point]"
CCCC(=O)N1c2ccccc2-c2nnc(SC)nc2OC1c1sccc1C (stereo not drawn),inactive: -4.24%,–
CC(C)(C)OC(=O)[C@H](Cc1ccccc1)NCC(=O)OCc1ccc(C(=O)NCc2ccccc2)cc1,–,"inconclusive: 22.4 µM [activator, single point]"
O=C(COc1ccc(C(=O)NCC2CCCO2)cc1)Nc1cccc(C(F)(F)F)c1 (stereo not drawn),inactive: 12.1%,–
N#C/C(=C\c1ccccc1)C(=O)Nc1cc(S(=O)(=O)N2CCOCC2)ccc1N1CCCC1,–,"inconclusive: 25.1 µM [activator, single point]"
CCNC(=O)N1c2ccc(OC)cc2C(C)=CC1(C)C,inactive: 7.39%,–
CC(C)CNC(=S)NC(=O)c1ccc([N+](=O)[O-])cc1,–,"inconclusive: 7.94 µM [activator, single point]"
COc1ccc2[nH]c3c(c2c1)CCN1C(=O)C(CC(=O)NCC24CC5CC(CC(C5)C2)C4)C[C@H](C(=O)N(C(C)C)C(C)C)[C@@]31C (stereo partly drawn),–,"inconclusive: 35.5 µM [activator, single point]"
CC1=NN(c2ccccc2)C(=O)C1/C=C1\NC(=S)NC1=O (stereo not drawn),–,"inconclusive: 15.8 µM [activator, partial curve, poor fit]"
CC(NC(=O)c1ccccc1)C(=O)OCC(=O)N1c2ccccc2Sc2ccccc21 (stereo not drawn),–,"inconclusive: 28.2 µM [activator, single point]"
COc1ccc(CSc2nnc(SCC(=O)Nc3ccccc3-c3ccccc3)s2)cc1,–,"inconclusive: 31.6 µM [activator, single point]"
O=C(CCCN1C(=O)/C(=C/c2ccccc2Cl)SC1=S)Nc1ccccn1,inactive: 18.4%,–
CN(C)c1ccc(NC(=O)c2cc3c(=O)n4ccccc4nc3n2C)cc1,–,"inconclusive: 35.5 µM [activator, single point]"
CC(=O)N1CCc2cc(Br)cc(S(=O)(=O)NCCc3cccc(C)c3)c21,inactive: 31.2%,–
Fc1ccc(C(NCCc2ccc(Cl)cc2)c2nnc(-c3ccccc3Cl)o2)cc1 (stereo not drawn),inactive: 37.5%,–
O=C(Nc1ccc(Cl)c(C(F)(F)F)c1)c1nc2ccccc2nc1N1CCCCC1,–,"inconclusive: 50.1 µM [activator, single point]"

SMILES,growth rescue (activation),Potency
Cc1ccc(-c2c3c(=O)n(C)c(=O)n(C)c3c3cnc4ccccc4n23)cc1,inactive: -8.73%,–
CC(CN1CCCC1)OC(=O)COc1ccccc1 (stereo not drawn),inconclusive: 46.6% [activator],–
O=C(Nc1ccc(Cl)cc1)N1CCC(c2nc(-c3cccs3)no2)CC1,–,"inconclusive: 1.26 µM [activator, full curve, poor fit]"
CCOC(=O)c1c(NC(=O)C2CCCCC2C(=O)O)sc2c1CCCCC2 (stereo not drawn),–,"inconclusive: 31.6 µM [activator, single point]"
COc1cccc(C(C)(O)c2nc(/C=C/c3ccccc3)cs2)c1 (stereo not drawn),inactive: 28.7%,–
CCOc1ccc(NC(=O)CSc2nc(O)c(C)c(=O)n2-c2ccc(F)cc2)cc1,–,"inconclusive: 20 µM [activator, single point]"
COc1nc(Nc2ccc(-c3nc4ccccc4o3)cc2)nc(N2CCOCC2)n1,–,"inconclusive: 0.794 µM [activator, full curve, poor fit]"
CSc1ccc(CNC(=O)c2sc3ncnc(N(C)C4CCCCC4)c3c2C)cc1,–,"inconclusive: 35.5 µM [activator, single point]"
CCN(CC)c1ccc(N=C2C(=O)Nc3ccccc32)cc1,–,"inconclusive: 22.4 µM [activator, partial curve]"
Cc1cccc(C(=O)N2c3ncnn3C3(CCCCC3)[C@@H]3CCCC[C@@H]32)c1,inactive: 11.6%,–
CC(Oc1ccc(Cl)cc1Cl)C(=O)NC(=S)N1CCc2ccccc21 (stereo not drawn),–,"inconclusive: 11.2 µM [activator, single point]"
COc1ccc(CN(C)C(=O)c2cccc(S(=O)(=O)N3CCCc4ccccc43)c2)c(OC)c1OC,–,"inconclusive: 50.1 µM [activator, single point]"
CCOC(=O)[C@]12CCC=C1N(Cc1ccc(Cl)cc1Cl)C(=O)[C@H](CC(=O)NCc1cccc3ccccc13)C2,–,"inconclusive: 5.62 µM [activator, full curve, poor fit]"
CCOC(=O)c1cc(-c2ccccc2)sc1NC(=O)CN1C(=O)NC(CC)(c2ccc(F)cc2)C1=O (stereo not drawn),–,"inconclusive: 35.5 µM [activator, single point]"
COc1cccc(NC(=O)CN(C)C(=O)c2ccc(Cl)c(S(=O)(=O)N3CCCCCC3)c2)c1,–,"inconclusive: 35.5 µM [activator, single point]"
COc1ccc(OC)c(CN2CCN(Cc3ccc(OC)c(OC)c3OC)CC2)c1,inactive: -23.3%,–
CCOc1ccc(C(=O)Nc2cccc(NC(=O)c3ccc(Cl)cc3Cl)c2)cc1,inactive: 2.07%,–
CC(C)N1CC2(CC(c3ccccc3F)=NO2)CN1C(=O)c1ccco1 (stereo not drawn),inactive: -19.2%,–
O=C(N/N=C/C=C/c1ccc([N+](=O)[O-])cc1)C1COc2ccccc2O1 (stereo not drawn),inactive: 24%,–
NC(=O)Nc1ccc(Cl)cc1,inactive: -17.8%,–
CCOC(=O)CSc1nc2c(sc(=S)n2-c2ccccc2OC)c(=O)n1Cc1ccco1,–,"inconclusive: 28.2 µM [activator, partial curve, poor fit]"

SMILES,growth rescue (activation),Potency
COC(=O)[C@]12C[C@H](CC(=O)NCCCCc3ccccc3)C(=O)N(Cc3cccc4ccccc34)C1=C[C@H](COCc1ccccc1)O[C@@H]2C,inactive: 40.2%,–
COc1ccc([C@@H]2[C@@H]3C(=O)N(C(C)(C)C)C(=O)[C@@H]3[C@]3(Cc4ccccc4)C(=O)N(c4cccc(F)c4)C(=O)N23)cc1,–,"inconclusive: 31.6 µM [activator, single point]"
CCCCNC(=O)C[C@H]1C[C@@]2(C(=O)OC)C(=C[C@H](COCc3ccccc3)O[C@@H]2C)N(CCc2ccc(OC)c(OC)c2)C1=O,inactive: 30.2%,–
CCN(CC)S(=O)(=O)c1ccc(Cc2ncc(C(F)(F)F)cc2Cl)s1,–,"inconclusive: 11.2 µM [activator, single point]"
COC(=O)[C@]12C[C@H](CC(=O)NCc3ccc(C)o3)C(=O)N(Cc3ccc(Cl)cc3Cl)C1=C[C@H](C(C)(C)C)O[C@@H]2C,–,"inconclusive: 25.1 µM [activator, single point]"
CCO[C@H]1OC(C(=O)N2CCN(Cc3ccc4c(c3)OCO4)CC2)=C[C@@H](c2cn(C(C)=O)c3ccccc23)[C@@H]1CCCO,inactive: 14.2%,–
Cc1c(C(=O)NCc2cccc(F)c2)oc2c1-c1[nH]ncc1CC2,inactive: 23.1%,–
O=C(NC(=S)N(CCCCO)C1CCCCC1)c1sc2ccccc2c1Cl,–,"inconclusive: 50.1 µM [activator, single point]"
Cc1ccc(/C(O)=C2/C(=O)C(=O)N(CCN3CCOCC3)C2c2cccnc2)cc1 (stereo not drawn),–,"inconclusive: 11.2 µM [activator, partial curve, poor fit]"
Cc1sc2nc(SCC(=O)Nc3c(C)n(C)n(-c4ccccc4)c3=O)n(C)c(=O)c2c1C,–,"inconclusive: 22.4 µM [activator, partial curve, poor fit]"
O=C(OCc1cn(Cc2cccc(F)c2)nn1)N1CCOCC1,inactive: 6.17%,–
C/C=C(\C)C(=O)OC1[C@H](OC(C)=O)C2(CO)C(CC1(C)C)C1=CCC3C4(C)CCC(O[C@@H]5O[C@H](C(=O)O)[C@@H](O[C@@H]6O[C@H](CO)[C@@H](O)[C@H](O)[C@H]6O)[C@H](O)[C@H]5O[C@H]5O[C@H](CO)[C@@H](O)[C@H](O)[C@H]5O)[C@](C)(CO)C4CCC3(C)[C@]1(C)C[C@H]2O (stereo partly drawn),–,"inconclusive: 28.2 µM [activator, single point]"
CCCCNC(=O)OCCCN1CCC2(CCC(c3ccccc3)CC2)C1=O (stereo not drawn),–,"inconclusive: 31.6 µM [activator, single point]"
CC(C)c1ccc(NC(=S)N2CCCC(c3ccc(F)cc3)=N2)cc1,–,"inconclusive: 11.2 µM [activator, single point]"
CCOC(=O)c1ccc(NC(=S)NNC(=O)c2cc(-c3cccnc3)nc3ccccc23)cc1,–,"inconclusive: 17.8 µM [activator, partial curve, poor fit]"
COc1ccc(C(=O)CSc2nnc(-c3cccc(Cl)c3)n2Cc2ccco2)cc1,inactive: 29.7%,–
C/C(=N\NC(=S)Nc1ccc(C)c(C)c1)c1ccc(N2CCOCC2)cc1,inactive: 9%,–
COc1ccc(C2CC(=O)c3cc(-c4nc(-c5ccc(C)cc5)cs4)c(=O)[nH]c3C2)cc1 (stereo not drawn),inactive: 18.8%,–
O=C(Nc1ccccc1)C1=C[C@H](C2CC2)C[C@H](OCCCCO)O1,–,"inconclusive: 2.82 µM [activator, full curve]"
CC(OC(=O)/C(C#N)=C/c1ccc(N(C)C)cc1)C(=O)N(C)Cc1ccccc1 (stereo not drawn),–,"inconclusive: 10 µM [activator, partial curve, poor fit]"
CS(=O)(=O)c1cccc(C(=O)OCC(=O)NCc2cccs2)c1,–,"inconclusive: 31.6 µM [activator, partial curve, poor fit]"
